This assay relates to Trichoderma virens ATCC 9645. The experiment in a line: growth yield (OD600) relative to untreated control; higher = less growth inhibition. The following applies: compound concentration: 100 uM. The procedure, abridged: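 Library compounds (100 μM final), with or without a co-applied biocide (200 ng ml^−1), were added to 100 μl aliquots of Trichoderma virens ATCC 9645 spores at 15,000 spores ml^−1 in potato dextrose broth. Cultures were grown at 30 °C in 96-well plates, and OD600 was measured at 40 h and 72 h. Each growth value is a mean of duplicate screens, expressed relative to the control with neither agent.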

Each structure is given as a SMILES string. Where a name gives a salt, the structure may show the parent alone. ± gives the standard error. Among all 1,300 compounds or so, about 75 (6%) showed an effect of 50% or more. Some of the results follow.

On to `Cc1ccccc1N1C(=O)c2cc(S(N)(=O)=O)c(Cl)cc2NC1C` (centres undefined) [Metolazone], for which the growth yield (40 h) came out at 99.91 ± 0.16% and the growth yield (72 h) was 100 ± 1.5%.

`COc1ccc2[nH]c([S+]([O-])Cc3ncc(C)c(OC)c3C)nc2c1` (centres undefined) [Omeprazole]: the growth yield reads like this: (40 h) 89.1 ± 4.6%; (72 h) 94.7 ± 5.1%.

In the case of `CC(=O)Nc1ccc(O)cc1` [Acetaminophen], the growth yield runs as follows: (40 h) 101 ± 6.3%; (72 h) 98.7 ± 2.6%.

As for `CO/N=C(\C(=O)N[C@@H]1C(=O)N2C(C(=O)O)=C(C[N+]3(C)CCCC3)CS[C@H]12)c1csc(N)n1` [Cefepime hydrochloride], the growth yield by setting is: (40 h) 101 ± 4%; (72 h) 92.3 ± 8%.

`CCOC(=O)[C@H](CCc1ccccc1)N[C@@H](C)C(=O)N1CCC[C@H]1C(=O)O` [Enalapril maleate]: the growth yield was 98.5 ± 1.3% (40 h) and 98.17 ± 0.63% (72 h).

For `CC1=C(CC(=O)O)c2cc(F)ccc2/C1=C\c1ccc([S+](C)[O-])cc1` (centres undefined) [Sulindac], the growth yield runs as follows: (40 h) 90.1 ± 1.1%; (72 h) 86.31 ± 0.73%.

With `CC(Oc1c(Cl)cccc1Cl)C1=NCCN1` (centres undefined) [Lofexidine], the growth yield turned out to be 104 ± 1.3% (40 h) and 105 ± 1.1% (72 h).

As for `C[C@]12CC[C@@H]3c4ccc(O)cc4CC[C@H]3[C@@H]1C[C@@H](O)[C@@H]2O` [Estriol], the growth yield stood at 103.4 ± 0.48% (40 h) and 99.63 ± 0.42% (72 h).

In the case of `CN(C)CCCO[C@@H]1[C@H]2OC(C)(C)O[C@H]2O[C@@H]1[C@H](O)CO` [Amiprilose hydrochloride], the growth yield was determined as 100.5 ± 0.79% (40 h) and 101.6 ± 0.73% (72 h).

Consider `Cc1noc(NS(=O)(=O)c2ccc(N)cc2)c1C` [Sulfisoxazole], for which the growth yield (40 h) was found to be 87.4% and the growth yield (72 h) amounted to 96.2 ± 1.8%.

With `CCc1cccc2c3c([nH]c12)C(CC)(CC(=O)O)OCC3` (centres undefined) [Etodolac], the growth yield reads like this: (40 h) 94.8 ± 2.4%; (72 h) 89.8 ± 2.7%.

With `CC[N+](CC)(CC)CCC(O)(c1ccccc1)C1CCCCC1` (centres undefined) [Tridihexethyl chloride], the growth yield (40 h) stood at 103 ± 6.3% and the growth yield (72 h) was determined as 101 ± 4.5%.

For the compound `CN(C)[C@@H]1C(O)=C(C(N)=O)C(=O)[C@@]2(O)C(O)=C3C(=O)c4c(O)ccc(Cl)c4[C@@H](O)[C@H]3C[C@@H]12` [Demeclocycline hydrochloride], the growth yield was 82.6 ± 3.2% (40 h) and 85.1 ± 5.6% (72 h).

For `O=C1c2ccccc2S(=O)(=O)N1CCCCN1CCN(c2ncccn2)CC1` [Ipsapirone], the growth yield by setting is: (40 h) 108 ± 3.6%; (72 h) 108 ± 4%.

In the case of `Cn1c([N+](=O)[O-])cnc1COC(N)=O` [Ronidazole], the growth yield turned out to be 101 ± 1.1% (40 h) and 98.06 ± 0.94% (72 h).

Turning to `COc1ccc(C(=O)NCc2ccc(OCCN(C)C)cc2)cc1OC` [Itopride], the growth yield reads like this: (40 h) 105 ± 5.7%; (72 h) 105 ± 3.7%.

`N[C@@H](C(=O)N[C@@H]1C(=O)N2C(C(=O)O)=C(Cl)CS[C@H]12)c1ccccc1` [Cefaclor hydrate]: the growth yield (40 h) is 96.1 ± 4.6% and the growth yield (72 h) worked out at 96.9 ± 4.2%.

Regarding `CC(Oc1ccccc1)C(=O)N[C@@H]1C(=O)N2[C@@H]1SC(C)(C)[C@@H]2C(=O)O` (some centres undefined) [Phenethicillin potassium salt], the growth yield is, setting by setting: (40 h) 101 ± 4.1%; (72 h) 95.1 ± 4.1%.

For `CN(C)CCOC(=O)COc1ccc(Cl)cc1` [Meclofenoxate hydrochloride], the growth yield (40 h) amounted to 95.1 ± 2.1% and the growth yield (72 h) came to 92.1 ± 3.6%.

`Brc1c(NC2=NCCN2)ccc2nccnc12` [Brimonidine L-Tartrate]: the growth yield by setting is: (40 h) 92.6 ± 2.4%; (72 h) 90.9 ± 1.4%.

Compound `CCCc1nc(C(C)(C)O)c(C(=O)O)n1Cc1ccc(-c2ccccc2-c2nnn[nH]2)cc1` [Olmesartan] displayed a growth yield (40 h) of 100 ± 3.2% and a growth yield (72 h) of 99.8 ± 2.9%.

Regarding `N=C(N)N/N=C/c1c(Cl)cccc1Cl` [Guanabenz acetate], the growth yield (40 h) amounted to 91.5 ± 1.9% and the growth yield (72 h) was found to be 90.7 ± 3.2%.

With `OC(CCN1CCCCC1)(c1ccccc1)C1CCCCC1` (centres undefined) [Trihexyphenidyl-D,L Hydrochloride], the growth yield reads like this: (40 h) 92.1 ± 3.5%; (72 h) 90.51 ± 0.1%.

As for `CN(CCOc1ccc(CC2SC(=O)NC2=O)cc1)c1ccccn1` (centres undefined) [Rosiglitazone Hydrochloride], the growth yield by setting is: (40 h) 99.6 ± 8.1%; (72 h) 88.4 ± 9.5%.

Turning to `CCC(=O)OCC(=O)[C@@]1(OC(=O)CC)[C@H](C)C[C@H]2[C@H]3[C@H]([C@@H](O)C[C@@]21C)[C@@]1(C)C=CC(=O)C=C1C[C@H]3Cl` [Alclometasone dipropionate], the growth yield came to 101 ± 4% (40 h) and 97.7 ± 1.7% (72 h).

Take `Nc1cc(-c2ccncc2)c[nH]c1=O` [Amrinone]: the growth yield is, setting by setting: (40 h) 87 ± 1.6%; (72 h) 83.1%.

With `COc1ccc(C[C@@H]2c3cc(OC)c(OC)cc3CC[N@+]2(C)CCC(=O)OCCCCCOC(=O)CC[N@@+]2(C)CCc3cc(OC)c(OC)cc3[C@H]2Cc2ccc(OC)c(OC)c2)cc1OC` [Cisatracurium besylate], the growth yield (40 h) was 95 ± 1.3% and the growth yield (72 h) stood at 94 ± 3.4%.

The compound `CC(N)C12CC3CC(CC(C3)C1)C2` (centres undefined) [Rimantadine Hydrochloride] returned a growth yield (40 h) of 102 ± 1.6% and a growth yield (72 h) of 103%.

Take `COC(=O)Nc1nc2cc(C(=O)c3ccc(F)cc3)ccc2[nH]1` [Flubendazol]: the growth yield is 102 ± 2.7% (40 h) and 102.6 ± 0.63% (72 h).

In the case of `O=C(O[C@@H]1C[C@@H]2C[C@H]3C[C@H](C1)N2CC3=O)c1c[nH]c2ccccc12` [Dolasetron mesilate], the growth yield is, setting by setting: (40 h) 106 ± 3.3%; (72 h) 104 ± 1.9%.

For `CC(C)(C)NC(=O)[C@@H]1CN(Cc2cccnc2)CCN1C[C@@H](O)C[C@@H](Cc1ccccc1)C(=O)N[C@H]1c2ccccc2C[C@H]1O` [Indinavir sulfate], the growth yield came to 94.4 ± 2.5% (40 h) and 95.5 ± 2.6% (72 h).

`CC(C)(C)NCC(O)c1ccc(O)c(CO)c1` (centres undefined) [Salbutamol]: the growth yield is 105 ± 1.6% (40 h) and 104 ± 2.5% (72 h).

For the origin of these results see the supplement of paper PMC8007513.
